# Data published in paper PMC4336329 (PLoS ONE, 2015).
# Screen size: about 310,000 compounds; about 14,000 (4.5%) showed an effect of 50% or more. The effect is printed as a negative number. Some of the results follow.
# Target: human ether-à-go-go-related gene (hERG) potassium channel (human, UniProt Q12809)
# Assay: primary screen, population patch clamp on CHO cells stably expressing hERG
# 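Further: peak tail current of the secondary pulse compared with the same well before compound.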
# Chain of human ether-à-go-go-related gene (hERG) potassium channel (Q12809 whole entry, looked up): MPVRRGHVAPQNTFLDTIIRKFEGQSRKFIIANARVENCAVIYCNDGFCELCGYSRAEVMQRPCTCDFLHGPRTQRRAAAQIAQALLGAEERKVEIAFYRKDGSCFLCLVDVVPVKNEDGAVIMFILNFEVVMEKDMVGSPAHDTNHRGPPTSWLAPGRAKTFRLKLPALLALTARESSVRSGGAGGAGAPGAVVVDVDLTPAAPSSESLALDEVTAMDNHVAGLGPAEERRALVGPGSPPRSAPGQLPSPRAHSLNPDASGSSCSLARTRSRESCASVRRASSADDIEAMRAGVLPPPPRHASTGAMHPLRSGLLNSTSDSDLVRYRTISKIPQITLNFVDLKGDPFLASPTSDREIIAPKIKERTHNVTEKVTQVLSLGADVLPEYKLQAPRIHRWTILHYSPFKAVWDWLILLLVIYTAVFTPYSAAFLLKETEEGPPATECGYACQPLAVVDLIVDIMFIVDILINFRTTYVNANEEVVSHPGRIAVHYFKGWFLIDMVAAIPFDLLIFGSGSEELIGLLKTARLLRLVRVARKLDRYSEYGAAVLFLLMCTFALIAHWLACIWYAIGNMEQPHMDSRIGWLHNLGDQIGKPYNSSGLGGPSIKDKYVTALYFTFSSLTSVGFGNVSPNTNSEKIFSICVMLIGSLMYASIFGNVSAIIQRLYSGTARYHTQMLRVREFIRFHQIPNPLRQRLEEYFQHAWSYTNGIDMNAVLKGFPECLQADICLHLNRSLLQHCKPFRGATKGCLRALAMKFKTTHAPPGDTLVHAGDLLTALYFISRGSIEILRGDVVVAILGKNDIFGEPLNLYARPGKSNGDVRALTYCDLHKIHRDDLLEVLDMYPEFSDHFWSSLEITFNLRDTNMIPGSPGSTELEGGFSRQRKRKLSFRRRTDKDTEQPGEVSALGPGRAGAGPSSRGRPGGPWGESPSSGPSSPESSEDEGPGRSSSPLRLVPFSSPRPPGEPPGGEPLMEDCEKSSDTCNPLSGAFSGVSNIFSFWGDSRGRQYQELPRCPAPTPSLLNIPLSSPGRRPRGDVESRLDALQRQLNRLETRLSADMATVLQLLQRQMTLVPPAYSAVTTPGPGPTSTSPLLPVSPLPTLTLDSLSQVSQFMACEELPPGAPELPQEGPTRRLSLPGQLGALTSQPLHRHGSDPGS
row,SMILES,"hERG current change (%, negative = inhibition) at 10uM [%]"
1,FC(F)(F)c1ccccc1NC1=NCCCS1,2.83
2,COc1ccc(S(=O)(=O)N(CC(C)C)CC(C)C)c2cccnc12,-31.3
3,CC1CN(C(=O)CCNC(=O)c2ccccc2Cl)CC(C)O1 (stereo not drawn),19.5
4,Nc1c(Cl)ncnc1N/N=C/c1ccncc1,10.2
5,O=C(Cc1c(Cl)cccc1Cl)Nc1ccc(S(=O)(=O)Nc2ncccn2)cc1,20.7
6,COc1ccc(N(Cc2cc3cc(OC)ccc3[nH]c2=O)C(=O)c2cccnc2)cc1,-5.1
7,Cc1ccc(C)c(N2CCN(C(=O)CCCCn3c(=O)[nH]c4ccccc4c3=O)CC2)c1,-25.2
8,CCn1nc(Cc2cccc3ccccc23)c(C#N)c1N,-15
9,CC(=O)c1cc(C#N)c(N2CCCC2)nc1C,15.1
10,CN1CCC(=O)N([C@H](COc2ccccc2)Cc2ccccc2)CC1,-28.5
11,CC(=O)Nc1ccc(NC(=O)CSc2nnc(NC(=O)C3CC(=O)N(c4ccccc4)C3)s2)cc1 (stereo not drawn),8.38
12,COc1cccc(NC(C)C(=O)N2CC(C)OC(C)C2)c1 (stereo not drawn),-1.96
13,CC1CC(C)CN(C(=O)c2ccc(S(=O)(=O)N3CC(C)CC(C)C3)cc2)C1 (stereo not drawn),-36.9
14,COc1ccccc1S(=O)(=O)CC(O)COc1ccc(F)cc1Cl (stereo not drawn),-3.29
15,CCN(CC(=O)Nc1ccc(NC(C)=O)cc1)C(=O)C1CC(=O)N(CCc2ccc(OC)c(OC)c2)C1 (stereo not drawn),-10.7
16,CNC(=S)NCCCc1ccccc1,7.97
17,CS(=O)(=O)Nc1ccc(C(=O)N2CCc3ccccc3C2)cc1,-23
18,CCOC(=O)c1cccc(-c2c(-c3ccccc3)ncc3cc(OC)c(OC)cc23)c1,4.03
19,Cn1nc(C(=O)OCC(=O)c2ccc[nH]2)c2ccccc2c1=O,3.25
20,CC1(C)Cc2nc3oc4c(N(CCO)Cc5ccccc5)ncnc4c3cc2CO1,-65.6
21,O=C1COc2ccccc2N1Cc1ccc(Cl)cc1,-20.4
22,Cc1ccc(N)c(C(=O)CCCCC(=O)O)c1,7.01

row,SMILES,"hERG current change (%, negative = inhibition) at 10uM [%]"
1,Cc1ccc(CN(Cc2ccccn2)C(=O)Nc2ccc(C)c(C)c2)cc1,-3.1
2,Cc1nc2ccc(NC(=O)c3cnc(Cl)c(Cl)c3)cc2s1,2.5
3,CCN(CC)CCN1C(=O)C(=O)/C(=C(/O)c2ccc(S(=O)(=O)N3CCOCC3)cc2)C1c1ccc(C(C)(C)C)cc1 (stereo not drawn),26.1
4,COc1ccc(OC)c(CN2C(=O)c3ccccc3C2C(=O)NCC2CCCO2)c1 (stereo not drawn),17.2
5,CN(C)CCCN(Cc1cc2cc3c(cc2[nH]c1=O)OCO3)C(=S)NCc1ccco1,-19.2
6,CCC(=NCCCN1CCOCC1)c1c(O)n(Cc2ccccc2)c(=O)[nH]c1=O,-40.3
7,CC(C)CC(=O)NC(=S)NCCc1ccccc1,-7.46
8,CCNc1nc(NCC)nc(Oc2ccc(N)cc2)n1,-2.38
9,O=[N+]([O-])c1ccccc1S(=O)(=O)N1CCCCC1,1.38
10,Cc1cccc(CN2CCc3c([nH]c4ccccc34)C2)c1,-33.4
11,COc1ccc(OC)c(N2C(N)=C(C#N)C(c3ccc(OC)c(O)c3)C3=C2CC(C)(C)CC3=O)c1 (stereo not drawn),2.66
12,O=C(/C=C/c1cccc(F)c1)NC1CCN(Cc2ccccc2)CC1,-70.6
13,CCCc1ccc2oc(C(=O)N3CCC(N4CCCC(O)C4)CC3)c(C)c2c1 (stereo not drawn),-36.3
14,CCOC(=O)Cc1csc(NC(=O)C2C3C=CC(C3)C2C(=O)O)n1 (stereo not drawn),5.58
15,Cc1ccc(C2=N/C(=C\c3cccc(F)c3)C(=O)O2)cc1,16.5
16,COc1cc(C#N)ccc1OC(=O)c1cccc(S(=O)(=O)N2CCN(C)CC2)c1,-36
17,CN(C(=O)COC(=O)c1cc(F)c(F)cc1Cl)c1ccccc1,0.987
18,COc1ccc(CCC(=O)Nc2ccc(S(=O)(=O)N3CCOCC3)cc2)cc1,-4.24
19,COc1ccccc1CNS(=O)(=O)c1ccc(-n2cnnn2)c(OC)c1,-27.7
20,CC(/C=N/Nc1ncc(C)c(=O)[nH]1)=C\c1ccccc1,-53
21,N#Cc1ccc(/C=C2\CCCCn3c2nc2cc(C(=O)O)ccc2c3=O)cc1,21.8
22,Cc1ccc(C(NC(=O)N2CCCC2)C(Cl)(Cl)Cl)cc1F (stereo not drawn),19.1

row,SMILES,"hERG current change (%, negative = inhibition) at 10uM [%]"
1,Cc1onc(C(=O)Nc2cccc(C(F)(F)F)c2)c1[N+](=O)[O-],-5.76
2,CCOc1ccc(CN(C)C(=O)CNC(=O)C2CCCCC2)cc1OC,8.89
3,Cc1onc(-c2ccccc2)c1-c1ccnc(N)n1,-2.21
4,COc1ccc(NC(=O)CCC(=O)Nc2cc(OC)c(NC(=O)c3cccs3)cc2OC)cc1,-5.28
5,CCN(CC)/C(=N/O)NC(=O)NS(=O)(=O)c1ccc(C)cc1,15.3
6,CN(C)CCSCc1nnc2n1-c1ccc(Cl)cc1C(c1ccccc1Cl)=NC2.c1ccccc1,-73.7
7,CCC1=Nc2cc(C(=O)NCC3CCCO3)ccc2Sc2ccc(Br)cc21 (stereo not drawn),-3.69
8,Cc1cc(-c2nnc(-c3cc4ccccc4oc3=O)o2)c(C)n1-c1ccccc1,-1.1
9,CC(C)CCCN1C(Nc2ccccc2)=NC[C@@H]1Cc1ccccc1,-62.3
10,CCN(CC(=O)Nc1ccc(OC)cc1)C(=O)c1ccc([N+](=O)[O-])cc1,-19.6
11,Cc1ccc(CNC(=O)C2(C)Oc3ccccc3NC2=O)cc1 (stereo not drawn),-4.26
12,CCN(CC(=O)NC(=O)NC1CCCC1)Cc1ccccc1,3.93
13,Cc1cc(C)nc(Nc2ccc(N3CCOCC3)cc2)n1,-5.99
14,Cc1cc(C)c(S(=O)(=O)N2CCOC2CNC(=O)C(=O)NCCCN2CCCC2=O)c(C)c1 (stereo not drawn),17.5
15,O=[N+]([O-])c1ccc2nc(-c3ccc(OC(F)F)cc3)cn2c1,-46
16,CC1(C)OC(C)(C)/C(=C\c2ccc(OCC(N)=O)cc2)C1=O,-3.7
17,O=C(O)c1ccc(/C=N/Nc2ccc(S(=O)(=O)N3CCCC3)cc2[N+](=O)[O-])cc1,9.45
18,CCCCn1c(CN2CCN(c3ccc(F)cc3)CC2)nc2c1c(=O)n(C)c(=O)n2C,-25
19,CSCCCNC(=S)N1CCc2ccccc2C1,9.78
20,O=C(N/N=C/c1ccc(OC(=O)c2cccc(F)c2)cc1)c1cccnc1,-69.6
21,Cc1cc(C)nc(OC(C(=O)O)C(OCc2ccccc2)(c2ccccc2)c2ccccc2)n1 (stereo not drawn),21.7
22,O=C(NC1=NCCS1)C1Cc2ccccc2CN1C(=O)c1ccccc1 (stereo not drawn),-4.49

row,SMILES,"hERG current change (%, negative = inhibition) at 10uM [%]"
1,CCn1cc(C(=O)N[C@H](C(=O)NCCCn2ccnc2)C(C)C)c(=O)c2cc3c(cc21)OCO3,1.82
2,Cc1c(C(=O)Nc2ccc(F)cc2)cn2c(nc3ccccc32)c1C#N,-1.75
3,CC1(C)C2CCC(C2)C1(C)NC(=O)CN1CCCC1.Cl (stereo not drawn),-0.213
4,CCCn1c(=O)[nH]c(=O)c2c1nc(-c1cc([N+](=O)[O-])ccc1Cl)n2CCOC,-16.8
5,O=S(=O)(c1ccc(Cl)c(S(=O)(=O)N2CCCC2)c1)N1CCCC1,1.54
6,COc1ccc(/C=C(\NC(=O)/C=C/c2ccco2)C(=O)NCCc2nc3ccccc3[nH]2)cc1,-56.6
7,O=C(CSc1nnc(-c2ccco2)n1-c1ccccc1Cl)Nc1cccc(C(=O)O)c1,14.7
8,N#Cc1ccsc1NC(=O)c1ccc(Cl)c([N+](=O)[O-])c1,21
9,O=C(Nc1cc(C(F)(F)F)ccc1Cl)c1ccc(NC(=O)C(F)(F)F)cc1,0.159
10,N#Cc1ccc(COc2ccc(CCO)cc2-n2nc3ccccc3n2)cc1,-66.6
11,O=C(Nc1ccc(N2CCOCC2)cc1)c1c(F)cccc1Cl,-1.56
12,C/C(=N/NC(=O)CNC(=O)c1cccs1)c1ccc(Cl)cc1,17.5
13,C[C@]12CCC(=O)C(O)=C1CC[C@@H]1[C@@H]2CC[C@]2(C)C(=O)CC[C@@H]12,-15.6
14,CC(C)n1c2ccccc2c2nc3ccccc3nc21,1.08
15,O=C(O)CN1CCN(Cc2ccccc2F)C1=O,24.7
16,N#CCSc1nnc(-c2ccc3c(c2)OCO3)o1,13.7
17,N#C/C(=C\c1ccc(N2CCCC2)c([N+](=O)[O-])c1)c1nc2ccccc2[nH]1,-35.5
18,CN1C(=O)CSc2ccc(NC(=O)NCc3cccnc3)cc21,-5.23
19,O=C(Nc1ccccc1C(=O)N/N=C/c1ccncc1)c1ccccc1,-7.25
20,CC(C)C(=O)OCCN=C1NS(=O)(=O)c2ccccc21,-4.71
21,CCOc1cnc(C(=O)NNC(=O)C(Br)C(C)C)o1 (stereo not drawn),4.78
